Experimental data: PubChem BioAssay AID485297 (National Center for Advancing Translational Sciences (NCATS), 2010)
The campaign covered roughly 320,000 compounds. About 9,100 (2.8%) were called active. Inconclusive means that the source gave no clear call. Such entries were picked first, then a sample of the others. Calls follow the shape of the dose curve; as a rule, active = well fitted activation curve with a large enough effect; inconclusive = small, poorly fitted or top-dose-only effect; inactive = no such curve, though single readings can be large or run the other way. Potencies of inconclusive entries are left out as doubtful fits.
Potency is read from the fitted curve at half-maximal effect; tags tell the direction and shape of the fitted curve.

Experiment: qHTS Assay for Rab9 Promoter Activators; also: nearly all actives have a fitted effect of over 60% in size; as to activation, negative = inhibition: % of control where 0% means no effect
Details: Huh7 Rab9 promoter-luciferase reporter, luminescence, 24 h; series mostly up to 9.22 µM
Method in brief: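 Huh7 cells stably carrying a Rab9 promoter-luciferase reporter, 1500 cells per well in OP-MEM I with 10% FBS, treated with compound 24 hours at 37C. Luciferase activity read by luminescence after 10 minutes with Amplite reagent.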
In the case of `O=C(NNC(=O)c1ccc(-c2ccccc2)cc1)c1ccccc1`, the Potency was inconclusive [activator, partial curve].
With `COC1CCCN(Cc2c(C(=O)N3CCN(C4CCCCC4)CC3)nc3ccccn23)C1` (stereo not drawn) the Potency was “inactive”.
In the case of `Fc1cccc(/C=N/Nc2ccc3ccccc3n2)c1`, the Potency was inconclusive [activator, full curve, poor fit].
For `CC(=O)Nc1ccc(N=Nc2ccc(O)cc2)cc1`, the Potency was active: 3.55 µM.
With `CC(=O)N[C@@H](Cc1c[nH]c2ccccc12)C(=O)NCCc1ccc(S(N)(=O)=O)cc1` the activation, negative = inhibition was inactive: 9.89% [at 1.84 µM].
With `Fc1ccc(CSc2nnc(-c3ccco3)o2)cc1` the Potency was inconclusive [activator, partial curve].
For `Cc1ccsc1/C=N/NC(=O)C(=O)NCC(C)C`, the Potency was inconclusive [activator, partial curve].
For `Cc1cccc(/N=C/c2c(O)n(Cc3ccc4c(c3)OCO4)c(=O)c3ccccc23)n1`, the Potency was “inactive”.
In the case of `Cc1ccc(NC(=O)Nc2cc(C)on2)cc1`, the Potency was inconclusive [activator, partial curve].
For `COc1ccc(S(=O)(=O)N2CCC(C(=O)NCCCc3ccccc3)CC2)cc1`, the Potency was “inactive”.
In the case of `N#C/C(=C\c1cccc([N+](=O)[O-])c1)c1ccccn1`, the Potency was inconclusive [activator, single point].
For `COc1cc(C2C(C#N)=C(N)Oc3cc(C)n(CCN4CCOCC4)c(=O)c32)cc(OC)c1OC` (stereo not drawn), the Potency was inconclusive [activator, single point].
For `NC(=O)c1sc2nc3c(cc2c1N)CCCCCC3`, the Potency was inconclusive [activator, partial curve].
In the case of `Nc1ccc(O)c(-c2nc3ccccc3s2)c1`, the Potency was inconclusive [activator, partial curve].
With `S=c1nc(COc2ccccc2)[nH]c2ccccc12` the Potency was inconclusive [activator, partial curve].
With `CC(C)C(=O)OCC(=O)Nc1ccc2c(c1)CCC2` the Potency was “inactive”.
With `Cc1ccc(NCc2nc3ccccc3n2C)c(C)c1` the Potency was active: 0.708 µM.
With `Cn1cnnc1SCC(=O)Nc1ccc2nc(SCc3ccccc3)sc2c1` the Potency was inconclusive [activator, partial curve].
With `CCOc1ccc(-c2nc(C)c(C(C)=O)n2O)cc1` the Potency was inconclusive [activator, partial curve].
With `O=C(Nc1cccnc1Cl)c1cc2c(s1)-c1ccccc1OC2` the Potency was inconclusive [activator, single point].
With `c1ccc2c(Nc3nnc(-c4ccncc4)s3)cccc2c1` the Potency was inconclusive [activator, single point].
For `COc1ccc(C)cc1NC(=O)CCc1c(C)nn(-c2ccc(N3CCCCC3)nn2)c1C`, the Potency was inconclusive [activator, partial curve].
In the case of `O=C(NCCC1CCCCN1S(=O)(=O)c1ccccc1)C(=O)Nc1ccc(F)cc1F` (stereo not drawn), the Potency was “inactive”.
In the case of `CC(/C=N/NC(=O)c1cccc(F)c1)=C\c1ccccc1`, the Potency was active: 0.398 µM.
With `CC1CCc2sc(NC(=S)NC(=O)c3ccccc3)c(C#N)c2C1` (stereo not drawn) the Potency was inconclusive [activator, partial curve].
With `COc1cc(/C=C2\OC(=O)c3c(OC)cccc32)ccc1O` the Potency was inconclusive [activator, single point].
With `Cc1cccc(S(=O)(=O)Nc2ccc(-c3cn4ccccc4n3)cc2)c1` the Potency was inconclusive [activator, single point].
In the case of `COc1ccc(C2=NOC(CNC(=S)N3CCOCC3)C2)cc1` (stereo not drawn), the Potency was inconclusive [activator, single point].
For `CC(C)CC(=O)Nc1nnc(SCC(=O)NC2CCCCC2)s1`, the Potency was inconclusive [activator, single point].
For `Cc1occc1C(=O)N=Nc1c(O)n(C)c2ccccc12`, the Potency was inconclusive [activator, single point].
For `Cc1ccc(-c2noc(CN3CCCCC3)n2)cc1`, the Potency was inconclusive [activator, single point].
In the case of `COC(=O)c1sccc1-c1ccc(C(=O)Nc2cccc(Cl)c2)o1`, the Potency was active: 3.55 µM.
In the case of `COc1ccc(NC(=O)Nc2ccc3nonc3c2)cc1`, the Potency was active: 3.55 µM.
With `CCCC(=O)Nc1ccc(-c2csc(N/N=C\c3ccncc3)n2)cc1` the Potency was inconclusive [activator, single point].
With `CN(C)/C=N/c1ncnc2c1cnn2-c1ccc(C(F)(F)F)cn1` the Potency was inconclusive [activator, partial curve].
For `O=C(Nc1cccc(NC(=O)c2ccc([N+](=O)[O-])o2)c1)c1ccco1`, the Potency was “inactive”.
With `CC(C)NC(=O)CSc1nc(N)c(NC(=O)c2ccco2)c(=O)[nH]1` the Potency was “inactive”.
For `COc1ccc(NC(=O)Nc2ccc(Br)c(C)c2)cc1`, the Potency was inconclusive [activator, partial curve].
In the case of `Cc1c(C(=O)NCCN2C(=O)S/C(=C\c3cccnc3)C2=O)cccc1[N+](=O)[O-]`, the Potency was “inactive”.
In the case of `Cc1cc(C(=O)COC(=O)c2ccc(Br)o2)c(C)n1C`, the Potency was “inactive”.
With `CCc1ccc(OCC(=O)NNC(=O)c2cc(S(=O)(=O)N(C)C)ccc2N2CCCC2)cc1` the Potency was “inactive”.
In the case of `Cc1ccc(S(=O)(=O)N2CCC(C)CC2)c([N+](=O)[O-])c1`, the Potency was “inactive”.
For `O=C(Nc1nc2c(s1)CN(Cc1ccccc1)CC2)C1CCCC1`, the Potency was inconclusive [activator, single point].
For `Cc1cc([N+](=O)[O-])ccc1NC(=O)c1csc(C)c1C`, the Potency was active: 2 µM.
With `Nc1cc(-c2ccc(Cl)cc2)nn1-c1ccccc1` the Potency was active: 3.16 µM.
With `S=C(NCCc1ccccc1)NCc1cccs1` the Potency was inconclusive [activator, single point].
For `O=C(CSc1ccc(Cl)cc1)Nc1cccc(-c2nnc(-c3ccco3)o2)c1`, the Potency was inconclusive [activator, single point].
In the case of `CCCCCn1cnc2c(sc3nc4c(cc32)CSC(C)(C)C4)c1=O`, the Potency was active: 3.16 µM.
